Source: publication PMC5093460
These are yes or no findings as the source states them, for the method shown. Binding seen in cells or lysates may run through a third protein. Some entries that bind do so weakly or less than the wild type. Blank lines part the entries; values can stand above or below the substance they belong to.

Chains of the proteins cited; added tags and fusions are not shown. Lines headed by an entry give the natural chain unless they say otherwise; changes in a name come on top. Residues count along the entry.
UniProt O95398, residues 43-923: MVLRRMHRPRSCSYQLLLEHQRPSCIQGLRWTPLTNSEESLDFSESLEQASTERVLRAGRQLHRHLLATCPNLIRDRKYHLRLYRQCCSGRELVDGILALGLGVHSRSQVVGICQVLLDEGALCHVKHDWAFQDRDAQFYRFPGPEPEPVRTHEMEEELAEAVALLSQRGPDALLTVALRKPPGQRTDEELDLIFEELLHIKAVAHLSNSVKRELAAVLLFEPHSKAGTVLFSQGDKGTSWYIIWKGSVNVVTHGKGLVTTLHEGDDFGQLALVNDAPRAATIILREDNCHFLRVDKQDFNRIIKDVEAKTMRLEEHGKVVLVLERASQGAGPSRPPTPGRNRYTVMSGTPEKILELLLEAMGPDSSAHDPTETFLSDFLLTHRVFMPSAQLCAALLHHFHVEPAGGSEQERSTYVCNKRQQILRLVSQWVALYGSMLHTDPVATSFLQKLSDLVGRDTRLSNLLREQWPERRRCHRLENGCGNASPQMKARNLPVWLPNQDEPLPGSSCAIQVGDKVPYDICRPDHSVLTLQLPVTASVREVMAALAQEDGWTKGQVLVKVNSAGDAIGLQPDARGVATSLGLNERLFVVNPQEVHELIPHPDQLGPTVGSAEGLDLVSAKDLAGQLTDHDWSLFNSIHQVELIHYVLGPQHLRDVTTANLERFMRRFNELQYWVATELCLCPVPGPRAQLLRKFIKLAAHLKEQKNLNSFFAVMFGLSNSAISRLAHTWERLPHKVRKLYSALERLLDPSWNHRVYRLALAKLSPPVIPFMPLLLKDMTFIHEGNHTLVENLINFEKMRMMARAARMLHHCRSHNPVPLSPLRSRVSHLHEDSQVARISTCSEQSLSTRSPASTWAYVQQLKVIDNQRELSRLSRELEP
UniProt Q8WZA2: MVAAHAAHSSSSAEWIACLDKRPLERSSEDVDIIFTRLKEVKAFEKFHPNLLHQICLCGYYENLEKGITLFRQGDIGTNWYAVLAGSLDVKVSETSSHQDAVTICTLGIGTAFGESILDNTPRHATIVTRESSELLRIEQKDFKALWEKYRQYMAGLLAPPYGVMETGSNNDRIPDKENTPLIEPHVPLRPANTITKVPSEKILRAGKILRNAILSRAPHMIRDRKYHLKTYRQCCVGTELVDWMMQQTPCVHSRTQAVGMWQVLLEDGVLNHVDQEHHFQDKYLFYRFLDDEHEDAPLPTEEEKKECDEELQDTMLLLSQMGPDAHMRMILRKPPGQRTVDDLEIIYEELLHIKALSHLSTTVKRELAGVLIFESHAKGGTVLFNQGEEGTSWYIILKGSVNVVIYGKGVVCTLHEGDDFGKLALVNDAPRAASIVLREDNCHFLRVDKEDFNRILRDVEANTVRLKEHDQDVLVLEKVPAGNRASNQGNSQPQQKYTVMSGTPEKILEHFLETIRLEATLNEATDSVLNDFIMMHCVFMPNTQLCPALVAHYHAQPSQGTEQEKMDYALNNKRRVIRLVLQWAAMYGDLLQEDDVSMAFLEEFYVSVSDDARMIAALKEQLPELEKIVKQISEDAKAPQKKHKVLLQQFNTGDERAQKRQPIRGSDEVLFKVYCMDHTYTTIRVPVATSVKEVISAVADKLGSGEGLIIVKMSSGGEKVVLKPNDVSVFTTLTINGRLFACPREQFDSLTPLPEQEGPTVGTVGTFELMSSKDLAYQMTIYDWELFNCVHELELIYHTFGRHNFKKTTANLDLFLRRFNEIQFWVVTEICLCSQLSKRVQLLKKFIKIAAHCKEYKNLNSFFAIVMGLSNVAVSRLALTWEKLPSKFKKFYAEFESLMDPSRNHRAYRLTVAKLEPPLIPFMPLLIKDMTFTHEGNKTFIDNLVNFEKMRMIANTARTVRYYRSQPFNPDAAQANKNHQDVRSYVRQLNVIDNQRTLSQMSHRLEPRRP
UniProt Q14974: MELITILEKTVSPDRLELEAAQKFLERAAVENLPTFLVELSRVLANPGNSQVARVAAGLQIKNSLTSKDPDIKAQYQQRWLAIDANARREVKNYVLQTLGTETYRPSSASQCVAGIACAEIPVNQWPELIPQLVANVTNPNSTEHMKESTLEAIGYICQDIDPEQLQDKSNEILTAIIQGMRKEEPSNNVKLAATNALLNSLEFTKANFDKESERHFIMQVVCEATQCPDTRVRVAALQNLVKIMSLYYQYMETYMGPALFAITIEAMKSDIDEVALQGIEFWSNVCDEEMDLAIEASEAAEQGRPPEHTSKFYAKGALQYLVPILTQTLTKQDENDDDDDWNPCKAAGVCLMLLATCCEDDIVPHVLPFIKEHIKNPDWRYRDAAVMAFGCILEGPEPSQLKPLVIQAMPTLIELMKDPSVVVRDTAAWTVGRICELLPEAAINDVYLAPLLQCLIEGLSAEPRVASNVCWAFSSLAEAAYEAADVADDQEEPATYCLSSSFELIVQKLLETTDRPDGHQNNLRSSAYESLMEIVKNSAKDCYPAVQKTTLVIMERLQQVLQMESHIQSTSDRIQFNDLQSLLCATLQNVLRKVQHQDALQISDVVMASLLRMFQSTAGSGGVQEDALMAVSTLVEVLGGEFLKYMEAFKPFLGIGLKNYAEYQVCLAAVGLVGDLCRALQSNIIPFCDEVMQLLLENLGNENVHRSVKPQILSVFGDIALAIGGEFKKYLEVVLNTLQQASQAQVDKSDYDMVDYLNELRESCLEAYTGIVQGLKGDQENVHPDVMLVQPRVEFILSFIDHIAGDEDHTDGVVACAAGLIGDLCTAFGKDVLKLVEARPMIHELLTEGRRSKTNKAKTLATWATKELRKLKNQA
UniProt P70168: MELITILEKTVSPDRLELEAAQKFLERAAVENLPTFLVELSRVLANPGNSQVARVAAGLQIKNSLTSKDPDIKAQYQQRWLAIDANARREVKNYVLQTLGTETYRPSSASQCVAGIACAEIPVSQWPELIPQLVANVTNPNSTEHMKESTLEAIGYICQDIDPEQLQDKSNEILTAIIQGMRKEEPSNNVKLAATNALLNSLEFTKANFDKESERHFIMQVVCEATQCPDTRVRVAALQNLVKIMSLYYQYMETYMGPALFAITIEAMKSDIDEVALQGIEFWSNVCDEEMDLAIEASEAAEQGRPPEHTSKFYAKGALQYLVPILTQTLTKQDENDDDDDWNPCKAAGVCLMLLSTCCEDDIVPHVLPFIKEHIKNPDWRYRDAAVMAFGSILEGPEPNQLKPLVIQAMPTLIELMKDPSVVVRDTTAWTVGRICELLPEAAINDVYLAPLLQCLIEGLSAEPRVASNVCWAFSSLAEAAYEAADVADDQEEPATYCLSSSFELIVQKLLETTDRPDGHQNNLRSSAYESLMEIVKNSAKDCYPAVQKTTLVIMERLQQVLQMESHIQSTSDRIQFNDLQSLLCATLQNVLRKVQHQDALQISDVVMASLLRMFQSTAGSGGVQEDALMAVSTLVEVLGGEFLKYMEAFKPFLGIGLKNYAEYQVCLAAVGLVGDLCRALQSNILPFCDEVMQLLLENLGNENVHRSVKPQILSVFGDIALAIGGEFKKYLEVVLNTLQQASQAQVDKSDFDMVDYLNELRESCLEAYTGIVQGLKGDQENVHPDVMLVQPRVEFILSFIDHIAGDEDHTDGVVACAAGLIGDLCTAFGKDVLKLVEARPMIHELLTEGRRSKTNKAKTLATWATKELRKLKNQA

Tests used:
[1] = molecular target: YFP-Epac1 (exchange protein directly activated by cAMP-1), expressed in HEK293 cells (UniProt O95398); experiment: co-IP; GFP-Trap_A beads, 2 hrs, with HEK293 lysates (10 mM Tris-HCl pH 7.5, 150 mM NaCl, 1 mM EDTA, 0.5% NP-40); western blot with impβ1 and GFP antibodies
[2] = molecular target: YFP-Epac2, expressed in HEK293 cells (UniProt Q8WZA2); experiment: as above
[3] = molecular target: importin β1 (impβ1), endogenous in HEK293 cells (human (endogenous in HEK293)) (UniProt Q14974); experiment: co-IP; impβ1 antibody (1 μg, 1 hr, 4 °C) and protein G-sepharose with lysates of cells expressing HA-Epac1 or control vector, pre-cleared with IgG; western blot with impβ1 and Epac1 antibodies
[4] = molecular target: YFP-Epac1, expressed in N2A cells (UniProt O95398); experiment: co-IP; GFP-Trap_A beads with N2A lysates; western blot for impβ1; in Fig. 2B cells treated with vehicle or 10 μM 8-pCPT-AM for 15 min (the agonist reduced the interaction)
[5] = molecular target: Epac1, endogenous in EA.hy926 cells (human (endogenous in EA.hy926)) (UniProt O95398); experiment: co-IP; endogenous Epac1 precipitated with Epac1 antibody (A-5, 1 μg, overnight) and protein A-sepharose from EA.hy926 lysates pre-cleared with IgG; western blot with Epac1 and impβ1 antibodies

- binding [1]: binds
- binding [2]: no binding
Substance: importin β1 (impβ1), endogenous in HEK293 cells (from UniProt Q14974 1-876)

- binding [3]: binds
Substance: HA-Epac1 (from UniProt O95398-3 1-881)

- binding [4]: binds
Substance: importin β1 (impβ1), endogenous in N2A cells (from UniProt P70168 1-876)

- binding [5]: binds
Substance: importin β1 (impβ1), endogenous in EA.hy926 cells (from UniProt Q14974 1-876)
